PubChem BioAssay AID894 (National Center for Advancing Translational Sciences (NCATS), 2007)
Where “and” joins values, the source holds several entries; their conditions need not be identical. Equal values may be shown once. About 6,500 (4.3%) of roughly 150,000 compounds were called active. Inconclusive results, whose numbers are uncertain, are shown with a selection of clear calls. Calls come from the whole dose curve; as a rule, active = well fitted inhibition curve with a large enough effect (not every such curve was filed as active); inconclusive = small, poorly fitted or top-dose-only effect, or another doubt; inactive = no such curve, though single readings can be large or run the other way. A potency beside an inconclusive call is a rough fit, not a confirmed value.

These molecules were tested against 15-hydroxyprostaglandin dehydrogenase [NAD(+)] (Homo sapiens) (UniProt P15428) (assay: qHTS Assay for Inhibitors of HPGD (15-Hydroxyprostaglandin Dehydrogenase)). Conditions: purified HPGD, NADH fluorescence kinetic, PGE2 substrate; activity change, negative = inhibition: stronger effect = lower value.
UniProt P15428, sequence (P15428 whole entry, looked up): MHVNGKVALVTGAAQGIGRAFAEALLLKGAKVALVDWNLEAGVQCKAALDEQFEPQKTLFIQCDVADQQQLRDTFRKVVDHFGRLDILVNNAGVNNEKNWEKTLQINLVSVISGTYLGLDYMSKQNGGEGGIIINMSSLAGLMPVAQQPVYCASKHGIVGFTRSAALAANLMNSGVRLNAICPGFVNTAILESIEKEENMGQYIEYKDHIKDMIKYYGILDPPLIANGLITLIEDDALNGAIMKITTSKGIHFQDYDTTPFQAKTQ
Method in brief: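 NADH formation kinetics: reaction with 30 uM PGE2 and 1 mM NAD+ (final), 20 nM enzyme, Tris-HCl pH 8 with Tween 20, after 15 min compound preincubation at room temperature. Fluorescence change, last versus first of five reads.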
% is set by controls: 0 for no effect and ±100 for the full control effect; potency is the fitted concentration of half-maximal effect; tags give direction and shape of the fitted curve.

| Structure (SMILES) | Potency | activity change, negative = inhibition |
| --- | --- | --- |
| COc1ccc(NC(=O)c2ccc(CNc3c(NC4CCCCC4)c(=O)c3=O)cc2)c(OC)c1 | inconclusive: 17.8 µM [inhibitor, partial curve] | – |
| COc1ncc2ncc(=O)n(Cc3ccc(F)cc3)c2n1 | – | inactive: -29.8% |
| Cc1cccc(-c2nc(CSCC(=O)N3CCN(Cc4ccc5c(c4)OCO5)CC3)c(C)o2)c1 | – | inactive: -26.8% |
| COC(=O)c1cc2sc(Cl)cc2n1CC(=O)Nc1ccc(OC)c(OC)c1OC | – | inactive: -3.97% |
| CN(C)c1oc(-c2ccco2)nc1C#N | inconclusive: 14.1 µM [inhibitor, partial curve] | – |
| CC1CCN(C(=S)c2ccc(-c3ccc(Cl)cc3Cl)o2)CC1 | inconclusive: 31.6 µM [inhibitor, single point] | – |
| O=S(=O)(Nc1c(S(=O)(=O)c2ccccc2)c2nc3ccccc3nc2n1C1CCCCC1)c1ccccc1 | inconclusive: 31.6 µM [inhibitor, partial curve] | – |
| COc1ccc(-c2ccc(=O)n(CC(=O)Nc3ccc(C(=O)NC4CC4)cc3)n2)cc1OC | active: 15.8 µM | – |
| O=C(NNC(=O)c1cccc2ccccc12)c1ccc(-c2ccccc2)cc1 | inconclusive: 20 µM [inhibitor, partial curve] | – |
| CC(=O)c1cc(NC(=O)c2ccc(Cl)cc2)c(=O)oc1/C=C/N(C)C | inconclusive: 25.1 µM [inhibitor, partial curve, poor fit] | – |
| Cn1cccc1C(=O)N1CCC2(CC1)CCN(c1cccc(-c3ccccc3)c1)CC2 | inconclusive: 25.1 µM [inhibitor, single point] | – |
| CO/N=C(/CNC(=O)c1ccc(F)cc1)c1ccc(Cl)cc1 | – | inactive: -4.66% |
| CCOC(=O)C1C(=O)CC(C)(O)C(C(=O)OCC)C1c1cccc(OC)c1 (stereo not drawn) | – | inactive: -9.09% |
| Cc1ccc2oc(-c3ccc(NC(=O)c4ccc5c(c4)OCO5)cc3)nc2c1 | inconclusive: 31.6 µM [inhibitor, partial curve] | – |
| O=C(CSc1nnc2sc3ccccc3n12)c1ccco1 | active: 22.4 µM | – |
| O=C(c1ccc(C(F)(F)F)cc1)N1CCCCC1 | active: 2.82 µM | – |
| O=C(c1ccc(Br)cc1)N1CCCC1 | active: 7.94 µM | – |
| Cc1ccc(S(=O)(=O)NCc2nnc(SCC(=O)Nc3cccc(C)c3C)n2C)cc1 | – | inactive: 2.01% |
| O=C(O)Cc1ccc(C(=O)c2ccccc2)s1 | inconclusive: 31.6 µM [inhibitor, single point] | – |
| CCCn1c(=O)[nH]c(=O)c2c1nc(-c1ccc(OC(F)(F)C(F)C(F)(F)F)cc1)n2CCOC (stereo not drawn) | inconclusive: 25.1 µM [inhibitor, partial curve] | – |
| CC1CCCCC1NC(=O)COC(=O)/C=C/c1ccc2c(c1)OCO2 (stereo not drawn) | inconclusive: 25.1 µM [inhibitor, partial curve] | – |
| C=C(C)Cn1c(NCCOC)nc2c1c(=O)[nH]c(=O)n2C | – | inactive: -6.96% |

| Structure (SMILES) | Potency | activity change, negative = inhibition |
| --- | --- | --- |
| O=c1c2cc3ccccc3n2cnn1Cc1ccccc1F | inconclusive: 28.2 µM [inhibitor, partial curve] | – |
| CCc1ccc(-c2csc3[n+]2CCN3C(C)=O)cc1 | active: 14.1 µM | – |
| CCOC(=O)C1Cn2c(nc3c(c2=O)C(C)(C)Cc2ccccc2-3)S1 (stereo not drawn) | inconclusive: 22.4 µM [inhibitor, partial curve] | – |
| Cc1ccc2[nH]c(-c3cccc(F)c3)cc(=O)c2c1 | inconclusive: 28.2 µM [inhibitor, partial curve] and inconclusive: 8.91 µM [inhibitor, full curve] | – |
| CCOC(=O)COc1cccc2c(=O)n(CC(=O)NCc3ccc4c(c3)OCO4)ccc12 | inconclusive: 35.5 µM [inhibitor, single point] | – |
| CSc1nnc2c3cc(F)ccc3n(Cc3ccccc3)c2n1 | – | inactive: -10.9% |
| O=C(CN1C(=O)c2ccccc2S1(=O)=O)NCc1cccnc1 | inconclusive: 3.16 µM [inhibitor, partial curve] | – |
| Cc1ccc(CNC(=O)CCS(=O)(=O)c2cc(Br)cc3c2N(C(=O)C2CC2)CC3)o1 | inconclusive: 31.6 µM [inhibitor, partial curve] | – |
| COc1ccc(-c2nn(-c3ccccc3)cc2/C=N/Nc2ccc3ccccc3n2)cc1OC | inconclusive: 7.94 µM [inhibitor, full curve] | – |
| CCCC(=O)n1nc(-c2cccnc2)nc1N | inconclusive: 39.8 µM [inhibitor, single point] | – |
| COc1ccc(OC)c(-c2csc(N(Cc3ccco3)C(=O)c3cccs3)n2)c1 | inconclusive: 39.8 µM [inhibitor, single point] | – |
| COc1cccc(-n2c(C)nnc2SCC(=O)Nc2ccccc2N2CCOCC2)c1 | – | inactive: -3.91% |
| COc1ccc(OCc2cccc(C(=O)Nc3cc(C)on3)c2)cc1 | – | inactive: -1.45% |
| COc1ccc(-c2nsc(C(=O)N(c3ccc(F)cc3)C(C(=O)NC3CCCC3)c3ccc(OC)cc3)c2N)cc1 (stereo not drawn) | inconclusive: 28.2 µM [inhibitor, partial curve] | – |
| CCOCCC(=O)Nc1cc(Cl)ccc1OC | – | inactive: -19.3% |
| COc1ccc(-c2cc(C(F)(F)F)n3nc(C(=O)Nc4cc(C)on4)cc3n2)cc1OC | inconclusive: 28.2 µM [inhibitor, partial curve] | – |
| O=C(c1ccc(N2CN(C(=O)c3ccco3)c3nc4ccccc4nc32)cc1)N1CCOCC1 | inconclusive: 12.6 µM [inhibitor, partial curve] | – |
| Clc1cccc(-c2ccc(/C=N/n3cnnc3)o2)c1Cl | inconclusive: 25.1 µM [inhibitor, partial curve] | – |
| O=C(Nc1cc(=O)c2ccccc2o1)N1CCCCC1 | inconclusive: 25.1 µM [inhibitor, partial curve] | – |
| CC(C)(C)C(=O)/C(=C\c1ccc([N+](=O)[O-])cc1)n1cncn1 | inconclusive: 28.2 µM [inhibitor, single point] | – |
| O=C(NNS(=O)(=O)c1ccccc1)C1CCN(S(=O)(=O)c2ccccc2)CC1 | – | inactive: -5.04% |
